Test results from PubChem BioAssay AID1794842 (National Center for Advancing Translational Sciences (NCATS), 2023).
The campaign covered roughly 2,800 compounds. Fewer than 10 were called active. Calls follow the shape of the dose curve; as a rule, active = well fitted curve in the direction sought with a large enough effect; inconclusive = small, poorly fitted or top-dose-only effect, or another doubt; inactive = no such curve, though single readings can be large or run the other way. The list shows a part of the results.

Molecular target: Metallo-beta-lactamase type 2 (Klebsiella pneumoniae) (UniProt C7C422)
Chain of UniProt C7C422 (C7C422 whole entry, looked up): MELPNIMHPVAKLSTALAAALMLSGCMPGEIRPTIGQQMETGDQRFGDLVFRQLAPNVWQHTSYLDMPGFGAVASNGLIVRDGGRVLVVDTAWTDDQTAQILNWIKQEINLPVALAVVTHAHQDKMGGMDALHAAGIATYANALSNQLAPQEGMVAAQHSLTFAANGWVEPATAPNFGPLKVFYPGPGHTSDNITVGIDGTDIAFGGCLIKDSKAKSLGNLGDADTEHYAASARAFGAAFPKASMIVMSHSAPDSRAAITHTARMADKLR
Test: qHTS to identify inhibitors of the New Delhi Metallo-beta-lactamase (NDM): Meropenem screen against the machine-based learning selections. Also: % of control where 0% means no effect.
Details: Purified NDM-1, meropenem hydrolysis, absorbance 300 nm; at 38.4 µM (top of the series) unless noted
How it was run: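 NDM-1 (2 nM final) in 50 mM HEPES pH 7.0, 1 uM Zn2SO4, 0.01% Tween20 was preincubated with compounds for >30 min. Nitrocefin (16.7 uM final) was read at 485 nm after 15 min, and meropenem (50 uM final) at 300 nm after 30 min.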

Activity change, negative = inhibition, inactive:
N#Cc1ccc(C(=O)N2C[C@@H]3C[C@H](C2)c2c(/C=C/c4ccc(Cl)cc4)ccc(=O)n2C3)cc1 -0.813%, CCCc1noc(-c2ccn3c(CNC(=O)c4cccc(N(C)C)c4)nnc3c2)n1 -1.1%, CS(=O)(=O)c1ccc(CN2C[C@H](O)C[C@H]2c2nc(-c3cnccn3)no2)cc1 -0.572% [at 57.5 µM], c1ccc(-c2ccc3ncc(Nc4cccnc4)n3n2)cc1 16.9% [at 76.7 µM], O=C(Nc1ccccc1Cl)N1CCC(Oc2ncccc2C(=O)N2CCCCC2)C1 (stereo not drawn) -1.51%, O=C(C1CC(=O)N(c2n[nH]c3ccccc23)C1)N1CCC(c2nc3ccccc3[nH]2)CC1 (stereo not drawn) -0.115%, CC(=O)Nc1cccc(-c2n[nH]c3c2CC(=O)N(c2ccccc2)C3)c1 8.26% [at 57.5 µM], Oc1cccc(-c2cc3c(cn2)NCCN(Cc2ccccc2)C3)c1 7.87% [at 57.5 µM], CN(C)c1ccc(-c2nnnn2[C@H]2CO[C@H]3[C@@H]2OC[C@@H]3NS(=O)(=O)c2ccc3ccccc3c2)cc1 6.07%, CC(C)(C)c1nnc([C@H]2CCN(C(=O)C3CC3)C2)o1 1.24% [at 76.7 µM], Cc1ccccc1N1Cc2c(NCC3CC3)ncnc2N(C)CC1=O -3.06%, CCN1CC(C(=O)N(C)Cc2ccc(Oc3ccccc3)cc2)CCC1=O (stereo not drawn) 1.3%, O=C1OC[C@@H]2CCN(Cc3ccc4c(c3)OCO4)Cc3ccc(F)cc3N12 -0.249% [at 57.5 µM], O=C(NCCCc1nc2ccc(Cl)cc2[nH]1)[C@H]1CCC[C@@H](O)C1 -4.03%, COCc1noc([C@@H]2CN(C(=O)c3cccc(Cl)c3)C[C@H]2CO)n1 -1.55%, COc1ccc(-n2nc(C)c([C@H]3C=C[C@@H](OC(=O)Nc4cccc(F)c4)C3)c2C)cc1 2.67% [at 57.5 µM], Cc1ccsc1-c1[nH]nc2ncc(-c3cccc(CO)c3)nc12 6.68% [at 57.5 µM], O=C1CCN(Cc2ccccc2OCC(O)CN2CCCCC2)CCN1 (stereo not drawn) 0.0924%, Cn1cc(CN(Cc2c(C(=O)N3CCCC3)nc3sccn23)C2CC2)cn1 -0.174%, Cc1ccccc1Nc1n[nH]c(C(O)c2cccc(C(F)(F)F)c2)n1 (stereo not drawn) -2.14% [at 57.5 µM], Cc1ncc2c(c1CNC(=O)c1ccc3cccnc3c1O)CCNC2 43.7%, O=C1NC(=NC2CCCC2)C2(CCN([S+](=O)([O-])c3cccc(C(F)(F)F)c3)C2)N1c1cccnc1 (stereo not drawn) 0.362%, CN1C[C@H](NCc2cccc(Cl)c2)CCC[C@@H](C(=O)NC2CC2)CC1=O 0.224% [at 57.5 µM], CC(=O)c1ccc(NC(=O)N2C[C@@H]3C[C@H](C2)c2ccc(NC(=O)CN(C)C)c(=O)n2C3)cc1 46.6%, Cc1ccccc1-c1cccc(CCOc2cnc3c(ccn3CC(=O)O)c2)c1 15.3% [at 57.5 µM], O=C(NCC1CC1)c1ccnc(-c2nnc3ccc(Nc4ccccc4)nn23)c1 9.51% [at 57.5 µM], O=C(NCC1CCOCC1)c1c[nH]c2ccccc12 -3.51%, CNc1ncc(C(=O)N2CCCC(CC=C(C)C)(C(=O)O)C2)cn1 (stereo not drawn) 5.66%, CC(=O)c1ccc(NC(=O)N[C@H]2CO[C@H]3[C@@H]2OC[C@@H]3n2nnnc2Oc2cccc(N(C)C)c2)cc1 10.6%, OC1(c2csc(CN3CCc4ccccc4C3)n2)CCN(C2CCOCC2)CC1 -3.56% [at 57.5 µM], COc1ccccc1C(=O)NCc1nnc2cc(-c3nc(C4CC4)no3)ccn12 3.99%, CN(C)c1ccc(C(=O)N2CCN3C(=O)c4cc(-c5ccc6c(c5)OCO6)ccc4NC(=O)[C@H]3C2)cc1 12.9%, Cc1ccc2nc(CO[C@H]3CN(Cc4ccc(Cl)cc4)C[C@H]3F)[nH]c2c1 -0.84% [at 57.5 µM], OCc1ccc(-c2cc(-c3ccncc3)c3cncn3c2)cc1 9.9% [at 57.5 µM], COc1cccc(-c2cnc3[nH]cc(CC(=O)NCc4cccnc4)c3c2)c1 -0.122% [at 57.5 µM], CC1=C[C@@H](CNS(C)(=O)=O)[C@H](C(C)C)C[C@H]1CC(=O)NC1CCCC1 1.69% [at 57.5 µM], CC1=C[C@@H](CNC(=O)C2CC2)[C@H](C(C)C)C[C@H]1Cc1nc2ccncc2[nH]1 -1.76% [at 57.5 µM], CC(C)NC(=O)NC[C@H]1OC[C@@H](NCc2cccc(C#N)c2)[C@@H]1O 0.107% [at 57.5 µM], C[C@@H]1CN(C(=O)c2cccc(C#N)c2)C[C@]1(C)O -0.893%, C[C@H]1[C@@H]2[C@@H](O)C([C@H](C)C(=O)NCc3cccs3)CC[C@@]2(C)CC[C@@H]1NC(=O)COc1ccccc1 (stereo partly drawn) -1.92%, NC1(Cc2cc(C(=O)N3CCCCC3)on2)COC1 1.55% [at 76.7 µM], COc1ccc2c(c1)CCN=C2C[C@H]1CN(C(=O)c2ccc(F)cc2)CC[C@H]1CC(=O)O 8.56% [at 57.5 µM], COCCN1C[C@H]2CN(Cc3ccc(C(F)(F)F)cc3)CCN2C1=O 0.0122% [at 57.5 µM], Cc1cccc(C)c1-c1nc(C(=O)NCCc2ccc(Cl)cc2)n2ccccc12 2.1%, Cc1ccccc1-c1[nH]nc2ncc(-c3cccc(O)c3)nc12 1.56% [at 57.5 µM], Cc1nccn1-c1ccccc1CNC1CCC2(CCNCC2)CC1 37.8%, Cc1nn2cc(CCNCC3(O)CNCCOC3)nc2s1 (stereo not drawn) 5.26%, COc1ccc(NC(=O)N2CC[C@@H](CC(=O)O)[C@@H](CC3=NCCc4cc(OC)c(OC)cc43)C2)cc1 10.7%
